Drawing on PubChem BioAssay AID488969 (Vanderbilt High Throughput Screening Facility, 2010), this text covers z-score for 68 molecules.

The full ranking holds about 110,000 compounds; the median of “z-score” is about -0.1, and the highest 2% start at about 2. Some of the results follow. Activity calls are given as the source filed them.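 Rule for the calls: active = z-score in the third read window above 3 or below -3; inactive = the rest.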

The target in this assay is Metabotropic glutamate receptor 8 (Rattus norvegicus) (UniProt P70579). Put plainly: rat mGluR8 modulators via GIRK flux, primary screen, cell-based, thallium flux, HTS (AID 488969). As to conditions: HEK293 rat mGluR8, GIRK (G protein-gated inwardly rectifying potassium channel) thallium flux, FluoZin2; at 10 µM; stronger effect = higher value; submaximal glutamate (EC20) added with thallium.
UniProt P70579, sequence (P70579 whole entry, looked up): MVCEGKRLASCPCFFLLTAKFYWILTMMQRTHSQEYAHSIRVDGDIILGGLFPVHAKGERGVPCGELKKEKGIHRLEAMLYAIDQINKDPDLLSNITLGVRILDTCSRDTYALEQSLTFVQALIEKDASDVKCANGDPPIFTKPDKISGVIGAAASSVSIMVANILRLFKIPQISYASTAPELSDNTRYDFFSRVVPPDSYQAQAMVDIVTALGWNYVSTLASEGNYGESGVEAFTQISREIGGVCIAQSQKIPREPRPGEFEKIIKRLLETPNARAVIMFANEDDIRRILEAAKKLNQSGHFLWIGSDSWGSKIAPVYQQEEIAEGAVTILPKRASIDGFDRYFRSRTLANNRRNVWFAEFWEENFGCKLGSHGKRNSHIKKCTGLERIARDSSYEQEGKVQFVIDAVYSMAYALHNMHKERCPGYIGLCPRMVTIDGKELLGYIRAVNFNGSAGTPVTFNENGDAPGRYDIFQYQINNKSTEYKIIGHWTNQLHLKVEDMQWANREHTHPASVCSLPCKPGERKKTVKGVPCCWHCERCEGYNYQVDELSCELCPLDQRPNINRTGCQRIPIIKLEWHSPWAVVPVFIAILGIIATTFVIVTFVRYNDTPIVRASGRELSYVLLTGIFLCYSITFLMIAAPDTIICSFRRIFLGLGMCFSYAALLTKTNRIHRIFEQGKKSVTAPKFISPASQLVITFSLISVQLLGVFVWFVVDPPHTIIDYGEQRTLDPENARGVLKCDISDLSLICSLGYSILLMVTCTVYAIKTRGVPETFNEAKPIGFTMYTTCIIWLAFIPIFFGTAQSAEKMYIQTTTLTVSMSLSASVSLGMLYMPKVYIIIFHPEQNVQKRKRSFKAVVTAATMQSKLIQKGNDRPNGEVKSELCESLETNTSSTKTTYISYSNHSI
`CC(C)C(NC(=O)/C=C/c1ccc(F)cc1)C(C)C` came in with a z-score of 0.0433.
Take `CC(=O)N/C(=C/c1ccc(OS(=O)(=O)c2ccc(C)cc2)cc1)C(=O)NCCO`: the z-score is -0.101.
To `COc1ccccc1-n1cnc2cc(NCc3cccs3)ccc21` belongs -0.604; to `COc1ccc(C2C(C#N)=C(N)Oc3n[nH]c(C)c32)cc1CSc1ccccn1` (stereo not drawn), -0.845; to `C=CCOc1c(Cl)cc(C2NC(=O)NC(C)=C2C(=O)OC)cc1Cl` (stereo not drawn), -0.332.
For `CCSc1nc(=S)n(CC)c(C)c1C(C)=O` the value was -0.265; for `COc1ccc(-n2c(C(C)n3nc(C)c([N+](=O)[O-])c3C)n[nH]c2=S)cc1` (stereo not drawn), -0.0141.
In the case of `Cc1ccc(NC(=S)NNC(=O)CSc2nc3ccccc3c(=O)n2-c2ccc(C)cc2)cc1`, the z-score was -0.293.
To `Cc1ccc(-c2nc(CS(=O)CC(=O)NCCCN3CC(C)CC(C)C3)c(C)o2)cc1` (stereo not drawn) belongs 0.468; to `Cc1cc(/C=N\NC(=O)c2cccs2)c(C)n1-c1ccc2ncccc2c1`, -0.00561.
To `O=C(Nc1ccccc1)OCc1cn(-c2ccc(Cl)cc2)nn1` belongs -0.251; to `CCOC(=O)COc1cc2c3c(c(=O)oc2cc1C)CCCC3`, -0.732; to `O=C(NNc1ccccn1)C(=O)NNS(=O)(=O)c1ccc(Cl)cc1`, -0.163.
For `CN1CCC(OC(=O)COc2ccc(C(C)(C)C)cc2)CC1` the value was 0.712; for `COc1ccc(-c2nnc(NC(=O)c3cc(C)on3)s2)cc1`, 0.861.
Take `CCc1ccc(C(=O)NN(C(=O)c2ccc(CC)cc2)C(C)(C)C)cc1`: the z-score was -1.47.
For the molecule `CC1=CC(C)C2(CO)COC(c3ccccc3O)C1C2C` (stereo not drawn), the z-score is -0.388.
For `COc1ccc(N2CCN(Cc3nc4ccsc4c(=O)[nH]3)CC2)cc1` the value was -0.255.
To `CN(C)c1ccnc(-n2cccc2/C=N/OCc2ccc(F)cc2Cl)c1C#N` belongs -2.63; to `O=C(c1ccc(S(=O)(=O)N2CCCCCC2)cc1)N1CCC(CN2C(=O)c3cccc4cccc(c34)C2=O)CC1`, -0.676.
For `Cc1nc(SCC(=O)Nc2cc(C)on2)c2c(=O)n(C)c(=O)n(C)c2n1` the value was 0.363; for `Cc1cc(NC(=O)c2cnn3c(C(F)(F)F)cc(-c4ccc(Br)cc4)nc23)no1`, 0.863; for `C/C(=C\C(=O)C(F)(F)F)Nc1ccc(C(F)(F)F)cc1`, 0.143.
As for `Cc1ccc(S(=O)(=O)N2CC(O)CC2C(=O)Nc2ccc3c(c2)CCC3)cc1` (stereo not drawn), the z-score is 2.07.
Molecule `Cc1ccc(S(=O)(=O)NC2c3cccc4cccc(c34)C2Sc2nncn2C)cc1` (stereo not drawn) showed a z-score of 0.0483.
For `CCOc1ccc(/C=C/C(=O)c2c(O)c3ccccc3oc2=O)cc1` the value was 0.155; for `Cc1ccccc1NS(=O)(=O)c1ccc(C2CNC(=O)C2)cc1` (stereo not drawn), -0.342; for `Cc1ccc(C(=O)/C=C/Nc2ccc(S(=O)(=O)Nc3onc(C)c3C)cc2)cc1`, 0.422.
For `CCOC(=O)N1CCC(NCCNC(=O)c2cccs2)CC1` the value was -0.43.
The molecule `O=c1n(Cc2ccc(Cl)cc2)c2sc3c(c2c2ncnn12)CCCC3` displayed a z-score of -0.595.
To `O=C(NC(Cc1ccccc1)C(=O)O)C1CCCCC1` (stereo not drawn) belongs -0.213; to `O=C(Cn1nc(Cc2ccncc2)c2ccccc2c1=O)N1CCN(C(=O)c2ccco2)CC1`, active: 3.76.
For `COc1ccc(C(=O)N2CCCC(c3nc(-c4ccc(OC)c(OC)c4)no3)C2)c(OC)c1` (stereo not drawn) the value was 1.76.
For `CC(C(=O)N1c2ccc(F)cc2CCC1C)N1C(=O)c2ccccc2C1=O` (stereo not drawn), the z-score worked out at 0.386.
To `CCOC(=O)COc1ccc(Cl)cc1C1NC(=O)NC(C)=C1C(C)=O` (stereo not drawn) belongs 0.17.
For `Cn1c(=NC(=O)C2CC2)sc2cccc(F)c21` the value was -0.189.
To `Nc1c(C(=O)NCc2ccco2)c2nc3ccccc3nc2n1CCc1ccc(F)cc1` belongs -0.43.
`CSc1nsc(SCCN2C(=O)c3ccccc3C2=O)n1` returned a z-score of 0.572.
For `CCOC(=O)c1c(C)sc2c1N(C(=O)CN1CCOCC1)c1cc(Cl)ccc1S2` the value was -0.13; for `CO/N=C/NC(=O)NOCc1c(Cl)cccc1Cl`, 0.548.
For `O=C(CSc1nc2ccc(Cl)cc2[nH]1)Nc1ccc2c(c1)CCC2` the value was active: 3.89; for `COc1ccccc1N1CCN(CC(=O)c2ccc3ccn(C(C)=O)c3c2)CC1`, 1.11.
Consider `Cc1cc(=O)[nH]c(SCC(=O)Nc2cccc3ccccc23)c1C#N`, for which the z-score is -0.192.
To `COC(=O)c1ccc(N2CCN(c3ccccc3)CC2)c(NC(=O)C2CC2)c1` belongs 1.42.
Turning to `O=C(CSCc1ccc([N+](=O)[O-])cc1)NC1CC1`, the z-score is -0.237.
Consider `CC/C(=N\NC(=O)CSCc1ccc(Cl)cc1)c1ccc2c(c1)OCCO2`, for which the z-score is -0.78.
To `O=C(c1cc(-c2ccco2)on1)N1CCCc2ccccc21` belongs -0.298.
To `COc1ccc(N2CCN(CC(O)COc3ccc([N+](=O)[O-])cc3)CC2)cc1` (stereo not drawn) belongs -0.183.
To `FC(F)(F)c1cc(-c2ccco2)nc(-n2nc(C(F)(F)F)cc2C2CC2)n1` belongs 0.694; to `CC(=O)NC1=NN(C(C)=O)C(c2cccs2)S1` (stereo not drawn), 0.0978; to `COC(=O)c1c(NC(=O)C(C)(C)C)sc2c1C(C(=O)OC)CC2` (stereo not drawn), -0.141.
In the case of `O=C(c1ccc2c(c1)OCO2)N1CCNc2ccccc2C1`, the z-score was -0.223.
For `CN(C)C(=O)COC(=O)c1ccccc1Nc1ccc(SC(F)F)cc1` the value was -0.185; for `CCCn1c(/N=C/c2ccc3c(c2)OCO3)nc2ccccc21`, -0.708; for `CNC(=O)/C(C#N)=C/c1c(N(Cc2ccccc2)Cc2ccccc2)nc2c(C)cccn2c1=O`, -0.35.
For `Cc1cccc(N=C2NC(=O)/C(=C/C=C/c3ccco3)S2)c1` the value was 0.7; for `CN(C(=O)CSCC(=O)O)C1CCCCC1`, 0.559.
For `COc1cc(/C=N/NC(=O)CCn2c3ccccc3c3ccccc32)cc(OC)c1OC` the value was -0.239; for `Cc1cccc(NC(=O)c2ccccc2Br)n1`, 0.0402; for `CCOC(=O)c1cnc(SCC)[nH]c1=O`, 1.28.
On to `CCN(CC)C(=O)CSc1nc2cc(OC)c(OC)cc2c(=O)n1Cc1ccc(Cl)cc1`, for which the z-score is -0.315.
For `CCOC(=O)N1CCC(NC(=O)C2CCCN2C(=O)OCc2ccccc2)CC1` (stereo not drawn) the value was 0.0559; for `Cc1cc(Cl)c2ccccc2n1`, -0.123.
Turning to `Cc1ccc(N2CCN(S(=O)(=O)c3ccc(F)c(C)c3)CC2)c(C)c1`, the z-score is -0.0676.
In the case of `CCCCNC(=O)c1ccccc1NC(=O)CCSc1ccccc1`, the z-score was -0.316.
To `COc1cc(NC(=S)N2CCN(C(c3ccccc3)c3ccccc3)CC2)cc(OC)c1` belongs -0.0342; to `Cn1c(SCC(=O)N2CCN(c3ccccc3)CC2)nnc1-c1ccccc1`, 0.236.
For `O=C1C2ON(c3ccccc3)C(c3ccncc3)C2C(=O)N1c1ccc(N2CCOCC2)cc1` (stereo not drawn) the value was -0.522.
